Read counts are not given, so values of variants with three or more changes are uncertain.
B1: CPEB3 Ribozyme (parent)
chain: UAACAGGGGGCCACAGCAGAAGCGUUCACGUCGCAGCCCCUGUCAGAUUCUGGUGAAUCUGCGAAUUCUGCUGUAUAUCUC

Variants of: B1
Assay: self-cleavage, relative activity (ratio to wild type); higher = more cleavage; in vitro, sequencing
Procedure, shortened: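 CPEB3 self-cleaving ribozyme mutant libraries were made by rounds of error-prone PCR, barcoded, and transcribed in vitro with T7 RNA polymerase for 5 hours at 37°C. Cleavage occurred during transcription and a 15 min DNase I step before EDTA stop. RNAs were reverse transcribed with template switching and Illumina-sequenced, with DNA sequencing mapping barcodes to variants. Relative activity is the variant's cleaved/total read fraction divided by wild type's (minimum 5 reads), averaged across three batches.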

| Variant | self-cleavage |
| --- | --- |
| UUACAGGGGGCCACGGCUGAGGCGUUCACGUCGCAGCCCCUGUCAGAUUCUGGCGAUUCUGCGAAUUCCGCUGUAUAUCUC | 0.07 |
| UUACAGGGGGCCACGGCAGAAGCGUUCGCGUCGCAGCCCCUGACAGAUUCUGGUGGAUCUGCGAAUGCUGCUGUAUAUCCC | 0.06 |
| UUACAGGGGGCCACGGCAGAAGCGUUCACGUCGCAGCCCCUGUCAAAUUCUGGCGAAUCUGCGAAUUCUGCUGUAUAUCUC | 0.35 |
| UUACAGGGGGCCACGGCAGAAGCGUUCACGUCGCAGCCCCCGUCAGAUUCUGGUGAAUCUGCGAAUUCUGCUGUAUAUCUC | 0.84 |
| UUACAGGGGGCCACGGCAGAAGCGUUCACGUCGCAGCCCCUGCCAGAUCCAGGUGAAUCUGCCAAUUCUGCUGUAUAUCUC | 0.13 |
| UUACAGGGGGCCACGGCAGAAGCGUUCACGUCGCAGCCCCUGUCAGAUUCUGGCGGAUCCGCGAAUUCUGUUGUAUAUCUC | 0.12 |
| UUACAGGGGGCCACUGCAGAAGCGUUCACGUCGCAGCCCCUGUCAGAUUCUGGUGAAUCUGCGAUAACUGCCGUAUAUCUC | 0.15 |
| UUACAGGGGGCCACUGCAGAAGCGCUCACGUCGCAGCCCCUGUCAGAUUCUGGUGAAUCUGCGAAUUCUGCUGUAUAUCUC | 0.3 |
| UUACAGGGGGCCACUGCAGAAGCGUUCACGUCGCAGCCCCUGGCUGGUUCUGGUGAAUCUGCGAAUUCUGCUGUAUACCUC | 0.26 |
| UUACAGGGGGCCACAGCGGAAGCGCUCACGUCGCUGCCCCGGUCAGAUUCUGGUGAAUCUGCGUAUUCUGCUGUAAAUCUC | 0.05 |
| UUACAGGGGGCCACAGCGGAAGCGUCCACGUCGCAGCCCCUGUCAGAUUCUGGUGAAUCUGCGAAUUCUGCUGUAUAUCUC | 0.07 |
| UUACAGGGGGCCACAGCGGAAGCGUUCACGUCGCAGCCCCUGACAGAUUCUGGUGAAUCUGCGAAUUCUGCUGUAUAUCUC | 0.83 |
| UUACAGGGGGCCACAGCGGAAGCGUUCACGUCGCAGCCCCUGUCAGAUCCUGGCGAAUCUGCGAAUUCUGCUGUAUAUCUC | 0.16 |
| UUACAGGGGGCCACAGCUGAAGCGUUCACGUCGCAGCCCCUGUCAGGUUCUGGCGAACCUGCGAAUUCUGAUGUAUAUCUC | 0 |
| UUACAGGGGGCCACAGCUGAAGCGUUCACGUCGCAGCCCCUGCCAGAUUCAGGUGAAUCUGCGAAUUCUGCUGUAUAUCUC | 0.06 |
| UUACAGGGGGCCACAGCAGGGGCGUUCACGCCGCAGCCCCAGUCAGAUUCUGGUGAAUCUGCGAAUUCUGCUGUAUAUCUC | 0.37 |
| UUACAGGGGGCCACAGCAGGAGCGUUCGCGUCGCGGCCCCUGUCAGAAUCUGGUGAAUCUGCGGAUUCUGCUGUAUAUCUC | 0.05 |
| UUACAGGGGGCCACAGCAGGAGUGUACACGUCGCAGCCCCUGUCAGAUUCUGGUGAAUCUGCGAAUCCUGUUGUAUAUCUC | 0.21 |
| UUACAGGGGGCCACAGCAGUAGCGUUCACGUCGCAGCCCCUGUCAGAUUCUGGUGAAUCUGCGAAUUCUGCCGUAUAUCUC | 0.36 |
| UUACAGGGGGCCACAGCAGAGGCGUUCGCGUCACAGCCCCUGCCAGAUUCUGGUGAAUCUGCGAAUUCUGCUGUAUAUCUC | 0.22 |
| UUACAGGGGGCCACAGCAGAGGCGUUCACGUCGCGGCCCCUGUCAGAUUCUGGUGAAUCUGCGAAUUCUGCUGUAUUUCUC | 1.16 |
| UUACAGGGGGCCACAGCAGAGGCGUUCACGUCGCAGCCCCUGUCGGAUUCUGGUGAAUCUGCGAUUUCUGCUGUAUAUCUC | 0.25 |
| UUACAGGGGGCCACAGCAGAGGCGUGCACGACGCUGCCCCUGUCAGAUUCUGGUGUAUCUGCGAAUUCUGCUGUAUAUCUC | 0.05 |

| Variant | self-cleavage |
| --- | --- |
| UUACAGGGGGCCACAGCAGAAGCGUUCUCGUCGCAGCCCCUGUCAGAUUCUGGUGGAUCUGCGAAUUCUGCUGUAUAUCUC | 0.51 |
| UUACAGGGGGCCACAGCAGAAGCGUUCACGUCGCGGCCUCUGUCAGAUUCUGGUGAAUCUGCGGAUUCUGCUGUAUAACUC | 1.26 |
| UUACAGGGGGCCACAGCAGAAGCGUUCACGUCGCGGCCCCUGUCAGAUUCUGGUGAAUCUGCGAAUCCUGCUGUAUAUCUC | 0.58 |
| UUACAGGGGGCCACAGCAGAAGCGUUCACGUCGCUGCCCCUGUCAGAUUCUGGUGAAUCUGCGGAUUCUGCUGUAUAUCUC | 0.38 |
| UUACAGGGGGCCACAGCAGAAGCGUUCACGUCGCUGCCCCUGUCAGAUUCUGGUGAAUCUGCGAUUUCUGCUGUAUAUCUC | 0.19 |
| UUACAGGGGGCCACAGCAGAAGCGUUCACGUCGCAGCCCCUGUCUGAUUCUGGUGAAUCUGCGAAUUCUGCUGUAUAUCCC | 0.33 |
| UUACAGGGGGCCACAGCAGAAGCGUUCACGUCGCAGCCCCUGUCAGGUUCUGGUGAAUCAGCGAAUCCUGAUGUAUAUCUC | 0.1 |
| UUACAGGGGGCCACAGCAGAAGCGUUCACGUCGCAGCCCCUGUCAGAUUCUGGUGCAUCUGCGAAAUCUGCUGUAUAUCUC | 0.15 |
| UUACAGGGGGCCACAGCAGAAGCGUUCACGUCGCAGCCCCUGUCAGAUUCUGGUGGAUCUGCGAAUUCAGCUGUAUAUCUC | 0.28 |
| UUACAGGGGGCCACAGCAGAAGCGUUCACGUCGCAGCCCCUGUCAGAUUCUGGUGAAUCUGCGAGUCAUGCUGUAUUUCUC | 0.22 |
| UUAGAGGGGGCCACAGCGGAAGCGUUCACGUCGCAGCCCCUGCCAGAUUCCGGUGAAUCAGCGAAUUCUGCUGUAUACCUC | 0.08 |
| UUACAGGGGGACACAGCAGAAGCGUUCGCGUCGCAGCCCCCGUCAGAUUCUGGUGAAUCUGCGAAUUCUGCUGUAUAUCUC | 0.31 |
| UUACAGGGGGCCAGAGUAGAUGCGUUCACGUCGCAGCCCCUGUCAGACUCUGGUGAAUCCGCGAAUUCUGCUGUAUAUCUC | 0.05 |
| UUACAGGGGGCCAUAGCAGAAGCGUUCACGUCACAGCCGGCGUCAGAUUCUGGUGAAUCUGCGUAUUCUGCUGUAUAUCUC | 0.14 |
| UUACAGGGGGCCACAGUAGGAGCGUUCACGUCGCAGCCCCUGUCAGAUUCUGGUGAAUCUGCGAAUUCUGCUGUAUAUCUC | 0.51 |
| UUACAGGGGGCCACAGUAGAAGCGUUCGCGUCCCAGCCCCUGUCAGAUUCUGGUGAAUCUGCGAAUUCUGCUGUAUAUCUC | 0.28 |
| UUACAGGGGGCCACAGUAGAAGCGUUCACGUCCCAGCCCCUGUCAGAUUCUGGUGAAUCUGCGGAUACUGCUGUAUAUCUC | 0.06 |
| UUACAGGGGGCCACAGCAGAAGUGUUCACGUCGCAGCCCCUGUCAGAUUCUGGUGAAUCUGCGAAUUCUGCUGAACAUCUC | 0.37 |
| UUACAGGGGGCCACAGCAGAAGCGUUCACGUUGCAGCCCCUGGCAGACUCUGGUGAAUCUGCGAAUUCCGCUGUAUAUCUC | 0.12 |
| UUACAGGGGGCCACAGCAGAAGCGUUCACGUCGUAGCCCCUGUCAGAUCCUGGUGAAUCUGCGAGUUCUGCUGUAUAUCUC | 0.07 |
| UUACAAGGGGACACAGCAGAAGCGUUCACGUCGCAGCCCCCGUCAGAUUCUGGUGAAUCUGCGGAUUCCGCUGUAUAUCUC | 0.21 |
| UUACAAGGGGCCACAGCAGAAGCGCUCACGUCGUAGCCCCCGUCAGAUUCUGGUGAAUCUGCGAAUUCUGCUGUAUAUCUC | 0.21 |
| UUACAUGGGGCAACAGCAGAAGCGUUCUCGUCGCAGCCCCUGUCAGAUUCUGGUGAAUCUGCGGAUUCUGCUGUAUAUCUC | 0.07 |

| Variant | self-cleavage |
| --- | --- |
| UUACAGAGGGCCACAGCGGAAGCGUUCACGCCGCAGCCCCUGGCAGAUUCUGGUGAAUCUGCGAAUUCUGCUGUAUAUCUU | 0.06 |
| UUACAGUGGGCCACAGCAGAAGCGUUCACGUCGCAGCCCCUGUCAGAAUCUGGUGAAUCUGCGAAUUCUGCCGUAUAUCUC | 0.17 |
| UUACAGGCGGCCACAGCAGAAGCGUUCACGUCGCAGCCCCUGACAGAUUCUGGUGAAUCUACGAAUUCUGCUGUAUAUCUC | 0.2 |
| UUACAGGGAGCCACAGCUGAAGCGUUCACGUCGCAGCCCCUGUCAGAUUCUGGGGUAUCUGCGAAUUCUGCUGUUUAUCUC | 0.05 |
| UUACAGGGAGCCACAGCAGAAGCGUUCUCGUCGCAGCCCCUGCCAGAUUCCGGUGAAUCUGCGAAUUCUGCUGUAUAUCUC | 0.06 |
| UUACAGGGAGCCAUAGCAGAAGCGUUCACGUCGCAGCCCCUGUCAGAUUCUGGUGAAUCUGCGAAUUCUGCUGUAUAUCUC | 0.45 |
| UUACAGGGAGCCACAGCAGAAGCGUUCACGUCGCAGCCCCUGUCAGAUUCUGGUGAAUCUGCGAAUUCUGCUAUAUAUCUC | 0.46 |
| UUACAGGGGACCACAGCAGAAGCGUUCACGUCGCAGCCCCUGCCAGAUUCUGGUGAGUCUGCGAAUUCUACUGUAUAUCUC | 0.07 |
| UUACAGGGGUCCACAGCAGAAGCGUUCACGUCGCAGCCCCCGUCAGAUUCUGGUGAAUCUGCGAAUUCUGAUGUAUAUCUC | 0.03 |
| UUACAGGGGUCCACAGCAGAAGCGUUCACGUCGCAGCCCCUGCCAGAUUCUGGUGAAUCUGCGAAUUCUGCUGUAUAUCUC | 0.06 |
| UUACAGGGGGCCACACCGGAAGCGUUCACGUCGCAGCCCCUGUCGGAUUCUGGUGAAUCCGCGAAGUCUGCUGUAUAUCUC | 0.27 |
| UUACAGGGGGCCACAGCACAAGCGUUCUCGUCGCAGCCCCUGUCAGAUUCUAGUGAACCUGCGAAUUCUGCUGUAUAUAUC | 0.22 |
| UUACAGGGGGCCACAGCAGAAGCGCUCACGUCACAGCCCCUGUCAGAUUCUGGUGAAUCUGCGAAUUCUGCUGUAUAUCUC | 0.07 |
| UUACAGGGGGCCACAGCAGAAGCGCUCACGUCACAGCCCCUGUCUGAUUCUGGCGAAUCUGCGAAUUCUGCUGUAUAUCUC | 0.24 |
| UUACAGGGGGCCACAGCAGAAGCGCUCACGUCGCAGCCCCUGUCAGAUUCUGGUGAAUCUGCAAAUCCUGCCGUGUAUCUC | 0.26 |
| UUACAGGGGGCCACAGCAGAAGCGCUCACGUCGCAGCCCCUGGCAGAUUCUGGUGAAUCUGCGAGAUCCGCUGUAUACCUC | 0.04 |
| UUACAGGGGGCCACAGCAGAAGCGUACACGUCGCAGCCCCUGUCGGAUUCUGGUGAAUCUGCGAAUUCUGCUGUAUAUCUC | 0.49 |
| UUACAGGGGGCCACAGCAGAAGCGUACACGUCGCAGCCCCUGUCAGUUUCUGGUGAAUCUGCGAAUUCUGCUGUAUAUCUC | 0.5 |
| UUACAGGGGGCCACAGCAGAAGCGUCCACGCCGCUGCCCCUGCCAGAUUCUGGUGAGUCUGCGAAUUCUGCUAUAUAUCUC | 0.29 |
| UUACAGGGGGCCACAGCAGAAGCGUCCACGUCGCAGCCCCUGUCAGAUCCUGGUGAAUCUGCGAAUUCUGCUGUUUAUCUC | 0.35 |
| UUACAGGGGGCCACAGCAGAAGCGUCCACGUCGCAGCCCCUGUCAGAUUCUGGCGAAACUGCGAAUUCUGCUGUAUACCUC | 0.17 |
| UUACAGGGGGCCACAGCAGAAGCGUUCACGACGCAGCCCCUGUCAGAUCCCGGUGAAUCUGCGAAUUCUGCUGUAUAUCUC | 0.21 |

Source: the RNAGym collection of RNA variant scans (doi:10.1093/nar/gkz1192)
